A word on the inhibition: it is the change of the read-out against control, counted positive when it falls.

This passage reports inhibition results from PubChem BioAssay AID485344 (National Center for Advancing Translational Sciences (NCATS), 2010).

Each structure is given as a SMILES string. The whole screen tested about 340,000 compounds, of which about 6,900 (2%) were called active. Rule as the data show it: active = inhibition above about 30%; inactive = below that, where a call was filed. The list shows a part of the results, in another mix than the full data. Where no call is shown, the source filed none.

For this assay, the target named is D(2) dopamine receptor (Homo sapiens) (UniProt P14416). The experiment in a line: HTS Assay for Allosteric Antagonists of the Human D2 Dopamine Receptor: Primary Screen for Antagonists. Also: 0% is about no effect. The following applies: HEK293 TREx D2 cells, calcium flux, dopamine EC80; at 10 µM; stronger effect = higher value. Put shortly: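 Read-out: kinetic calcium fluorescence (1 cycle/s) in inducible HEK293 T-REx D2 cells after an EC80 dopamine addition that followed 180 s compound preincubation. Loss of the dopamine response indicates antagonism.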
Sequence of UniProt P14416 (P14416 whole entry, looked up): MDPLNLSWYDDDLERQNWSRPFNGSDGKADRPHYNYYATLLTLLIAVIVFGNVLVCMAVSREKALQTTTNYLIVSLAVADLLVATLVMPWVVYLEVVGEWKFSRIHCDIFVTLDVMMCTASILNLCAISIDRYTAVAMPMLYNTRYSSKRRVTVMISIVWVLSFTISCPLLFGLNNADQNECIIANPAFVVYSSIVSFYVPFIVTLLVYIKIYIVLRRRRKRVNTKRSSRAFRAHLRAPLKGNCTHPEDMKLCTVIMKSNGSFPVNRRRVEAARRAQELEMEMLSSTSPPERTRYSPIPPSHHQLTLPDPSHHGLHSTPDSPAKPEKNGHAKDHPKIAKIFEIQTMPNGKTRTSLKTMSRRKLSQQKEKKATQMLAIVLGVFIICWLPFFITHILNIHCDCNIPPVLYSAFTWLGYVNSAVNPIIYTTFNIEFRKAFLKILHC
In general terms: Calcium flux is commonly read through the fluorescence of an indicator in the cells.
As for `CCCn1c(C)nc2cc(Cl)c(N3CCN(c4nc(-c5ccc(C)cc5)cs4)CC3)cc21`, the inhibition is active: 40%.

Consider `COc1ccccc1N1CCN(Cc2cnc3ccc(Cl)cn23)CC1`, for which the inhibition is active: 55.2%.

`COc1ccc(C2C(C#N)=C(N)Oc3n[nH]c(C)c32)cc1CN1CCN(c2ccc(F)cc2)CC1` (stereo unspecified): the inhibition was active: 53.9%.

On to `COc1ccc(NC(=O)CC2SC(N3CCCCC3)=NC2=O)cc1OC` (stereo unspecified), for which the inhibition is active: 40.6%.

As for `CCC(=O)Nc1ccc2nc(SCCOc3cccc(C)c3)sc2c1`, the inhibition was -25.6%.

For the compound `CC(=O)NC12CC3CC(C1)CC(C(=O)OCC(=O)Nc1c(F)cccc1F)(C3)C2`, the inhibition was active: 37%.

Take `CC(C)(C)NC(=O)Cn1cc(S(=O)(=O)Cc2ccc(F)cc2)c2ccccc21`: the inhibition was determined as 11.6%.

Regarding `COCCn1c(SCC(=O)c2ccc(OC)cc2)nc2cc(C(=O)NC3CCCC3)ccc2c1=O`, the inhibition came to 3.45%.

Consider `CC1CCN(c2ccc(-c3cccc(NS(=O)(=O)c4ccc(Cl)s4)c3)nn2)CC1`, for which the inhibition is -0.016%.

For the compound `CCOC(=O)CNC(c1ccccc1)c1cc(Br)ccc1NC(=O)c1ccc(Cl)cc1` (stereo unspecified), the inhibition was -0.819%.

As for `Cc1ccc(S(=O)(=O)Nc2ccc(-c3ccc(N4CCCCCC4)nn3)cc2)cc1C`, the inhibition was -0.947%.

As to `C#CCSc1nc2sc3c(c2c(=O)n1-c1cccc(OC)c1)CCN(C(C)=O)C3`, the inhibition amounted to 9.5%.

With `COc1cc(Cl)c(NC(=O)c2cc(S(=O)(=O)N3CCOCC3)cn2C)c(OC)c1`, the inhibition is 1.47%.

With `CCOC(=O)c1ccc(-c2ccc(/C=C(\C#N)C(=O)Nc3c(C)cccc3Cl)o2)cc1`, the inhibition is -8.6%.

For the compound `CCc1nn2c(-c3ccco3)ccnc2c1-c1ccc(F)cc1`, the inhibition turned out to be 5.31%.

Consider `Cn1c(=O)[nH]c(=O)c2c1nc(N(CCO)Cc1ccccc1)n2Cc1ccccc1Cl`, for which the inhibition is active: 73.5%.

Take `COc1ccc(-c2n[nH]c3c2C(c2ccc(Cl)cc2Cl)NC3=O)cc1` (stereo unspecified): the inhibition amounted to 0.585%.

As for `CCN(CCCNC(=O)c1ccc(Sc2ccc(C)cc2)c(NC(C)=O)c1)c1cccc(C)c1`, the inhibition is 16.3%.

Take `Cc1ccc2oc(-c3ccc(C)c(NC(=O)c4ccc5c(c4)OCCO5)c3)nc2c1`: the inhibition was determined as 5.61%.

Consider `COc1ccc(NC(=O)Cn2c(=O)n(-c3cccc(C)c3)c(=O)c3c2c2cc(C)ccc2n3C)cc1OC`, for which the inhibition is -3.32%.

As for `CCOc1cccc(C(=O)Nc2ccc3oc(-c4ccc(C(C)(C)C)cc4)nc3c2)c1`, the inhibition came out at 1.13%.

Consider `COc1ccc(CN2CCC(CO)(Cc3ccccc3)CC2)cc1Cn1cccn1`, for which the inhibition is active: 37%.

For `Cc1ccc(F)cc1NC(=O)CCc1c(C)nn(-c2ccc(N3CCCCC3)nn2)c1C`, the inhibition is -5.27%.

Regarding `CC(CCO)Nc1nc2c(c(=O)n(C)c(=O)n2C)n1Cc1ccc(Br)cc1` (stereo unspecified), the inhibition amounted to 5.05%.

Regarding `Cc1cc2c(n1-c1ccc(C(=O)NCC(C)c3ccccc3)cc1)CCCC2` (stereo unspecified), the inhibition is 26.7%.

Regarding `Cc1cccc(Nc2nc(Nc3cccc(C)c3)nc(N3CCOCC3)n2)c1`, the inhibition was 7.49%.

Turning to `COc1cc(OC)c(NC(=O)CSC2=Nc3ccccc3N=C(c3ccc(F)cc3)C2)cc1Cl`, the inhibition is 5.52%.

For the compound `CCOc1ccc(CNC(=O)c2ccc3c(c2)sc2nc(-c4ccc(OC)cc4)cn23)cc1`, the inhibition was 3.64%.

With `COc1ccc(S(=O)(=O)N(C)CC(=O)NCc2ccco2)cc1OC`, the inhibition was active: 33.7%.

Turning to `Cc1sc(C2C(C#N)=C(N)N(c3cccc(Cl)c3)C3=C2C(=O)CCC3)cc1CN1CCOCC1` (stereo unspecified), the inhibition stood at 6.19%.

As to `CCOc1ccc(-c2nc(-c3ccccc3C)no2)cc1`, the inhibition was active: 52.9%.

On to `O=S(=O)(NCc1ccc(F)cc1)c1ccc2[nH]c3c(c2c1)CCCCC3`, for which the inhibition stood at 1.25%.

`CCOC(=O)c1nc(Nc2ccc(OC)cc2)c2ccccc2n1`: the inhibition was 4.44%.

In the case of `CC(C)CCNC(=O)c1ccc(Cn2c(=O)c3cccn3c3cccnc32)cc1`, the inhibition is -4.62%.

For the compound `Cc1ccccc1Nc1c(-c2cccc(O)c2)nc2ccc(Br)cn12`, the inhibition came to 15.7%.

Take `COc1ccc(N2CCN(C(=O)Cn3cnc4sc(C)c(S(=O)(=O)N5CCC(C)CC5)c4c3=O)CC2)cc1`: the inhibition turned out to be 4.86%.

For `CCOC(=O)c1ccc(N2C(=O)c3n[nH]c(C)c3C2c2ccc(O)c(OC)c2)cc1` (stereo unspecified), the inhibition was 18.4%.

As for `Cc1cc(=O)oc2c3c(ccc12)OCN(Cc1ccccc1Cl)C3`, the inhibition came out at 1.66%.

In the case of `Cc1ccc(-n2ncc(C(=O)N3CCN(c4ccccn4)CC3)c2C2CCN(C(=O)OC(C)(C)C)CC2)cc1C`, the inhibition is 1.27%.

On to `COc1ccc(Cc2nc(-c3ccccn3)no2)cc1`, for which the inhibition is active: 34.2%.

On to `CCOC(=O)c1ccccc1NC(=O)Cc1c(C(=O)O)c(C)cn1C`, for which the inhibition was -5.94%.

`COc1ccc(C2=CC(c3ccc(N(C)C)cc3)n3nnnc3N2)cc1` (stereo unspecified): the inhibition was -18.8%.

Regarding `Clc1ccc(OCCCNCc2ccccc2)c2ccccc12`, the inhibition was active: 41.5%.

Regarding `Cc1c(CNC2CCCCCC2)c(C(=O)O)c(C)n1Cc1c(F)cccc1Cl`, the inhibition is -11.4%.

For the compound `COc1ccc(C(=O)Nc2onc3c2CCCC3)cc1`, the inhibition stood at 3.51%.

As for `CCOc1ccc(N2C(=O)CC(NC3CCCCNC3=O)C2=O)cc1` (stereo unspecified), the inhibition is active: 45.3%.

As to `COc1ccc(NC(=O)Cn2cnc3c(nc4n3CCCCC4)c2=O)c(OC)c1`, the inhibition is 4.48%.

For `COCCCn1c(=N)c(C(=O)NC2CCCCC2)cc2c(=O)n3ccccc3nc21`, the inhibition is -1.55%.

Consider `COc1cc(NC(=O)C(NC(=O)C2CCC(C)CC2)C(C)C)cc(OC)c1OC` (stereo unspecified), for which the inhibition was -2.51%.

Regarding `C(=C\c1ccccc1)/C=N/N1CCN(Cc2ccccc2)CC1`, the inhibition was active: 40%.

For `COc1ccc(Cl)cc1NS(=O)(=O)c1c(C)nc2scc(C)n2c1=O`, the inhibition is -7.54%.

Regarding `COCCn1c(CNC(=O)c2cc([N+](=O)[O-])ccc2Cl)nc2cccnc21`, the inhibition was 2.62%.

With `O=c1n(Cc2ccc(F)cc2Cl)c2ccccc2c2nc(-c3ccccc3)nn12`, the inhibition was -7.84%.

For `CCCCN(CC)CCCNC(=O)c1cn(CC(C)C)c(=O)c2c1c1ccccc1n2C`, the inhibition is 10.7%.

Take `COc1ccc(-c2cn3nc(N4CCCC(C(=O)Nc5ccc(Cl)cc5C)C4)sc3n2)cc1` (stereo unspecified): the inhibition was -16.8%.

For `CC1Cc2ccccc2N1S(=O)(=O)c1nnc(NC(=O)c2ccccc2Br)s1` (stereo unspecified), the inhibition is -21.9%.

For the compound `Cc1[nH]c2ccc(F)cc2c1CCNC(=O)c1cc2cc(Cl)ccc2oc1=O`, the inhibition is -13.4%.

For `COc1ccccc1N1CCN(S(=O)(=O)c2ccc3c(c2)CC(C)N3C(C)=O)CC1` (stereo unspecified), the inhibition was active: 32.8%.

Take `COc1ccccc1CNC(=O)Cn1c(=O)ccc2cc(S(=O)(=O)N3CCC(C)CC3)ccc21`: the inhibition came out at 5.71%.

Consider `COC(=O)c1c(C)oc2c1cc(NS(=O)(=O)c1c(C)cc(C)cc1C)c1ccccc12`, for which the inhibition is 6.5%.

As to `O=S(=O)(c1ccc(Cl)cc1)c1nc(-c2ccccc2Br)oc1N1CCOCC1`, the inhibition was found to be 14.6%.

For `CCC(C)(C)n1nnnc1C(c1ccc(O)c(OC)c1)N1CCc2ccccc2C1` (stereo unspecified), the inhibition is active: 35.1%.

In the case of `Cc1ccc(NC(=O)CCc2c(C)nn(-c3ccc(N4CCCCC4)nn3)c2C)cc1F`, the inhibition came to 4.38%.

With `COC(=O)c1cc2sc(C)cc2n1Cc1ccc(F)cc1Cl`, the inhibition is -13.1%.

Take `O=C(Nc1cccc(-c2nnc(-c3ccccc3)o2)c1)C1CCCO1` (stereo unspecified): the inhibition is active: 63%.

As to `CCOc1ccc2nc(N(Cc3cccnc3)C(=O)c3ccc4c(c3)OCCO4)sc2c1`, the inhibition was -9.77%.

As for `COc1cccc(CSc2nc3cc(OC)c(OC)cc3c3nc(CCn4nc(C)cc4C)nn23)c1`, the inhibition is -5.02%.

For `CN1CCC(=C2c3ccccc3C=Cc3ccccc32)CC1`, the inhibition is active: 77.1%.

`CC1Cc2cc(S(=O)(=O)NCc3ccc(F)cc3)ccc2N1C(=O)C1CCC1` (stereo unspecified): the inhibition is -4.53%.

For the compound `O=C(NCc1cccs1)c1ccc(CSc2nc3ccncc3n2Cc2cccc(F)c2)cc1`, the inhibition amounted to 2.66%.

Consider `Cc1ccc(NC(=O)C2CCN(c3nc4ccccc4[nH]3)CC2)cc1Cl`, for which the inhibition was -22.4%.

On to `COc1ccc(C)cc1NC(=O)CN1C(=O)CCc2cc(S(=O)(=O)N3CCOCC3)ccc21`, for which the inhibition was 11.5%.

For `CC(=O)c1ccc(NC(=O)CSc2nc(-c3ccccc3F)nc3c2c(=O)n(C)c(=O)n3C)cc1`, the inhibition was 6.53%.

For the compound `Cc1ccc(C(c2sc3nc(-c4ccco4)nn3c2O)N2CCCCC2)cc1` (stereo unspecified), the inhibition is -5.78%.

On to `Cc1ccc(N(C)S(=O)(=O)c2ccc3[nH]cc(C(=O)O)c(=O)c3c2)cc1C`, for which the inhibition came out at 9.18%.

For `C=Cc1ccc(Cn2c(=O)n(-c3ccccc3C)c(=O)c3c4c(sc32)CN(C(C)=O)CC4)cc1`, the inhibition turned out to be 6.1%.

As for `CCc1nn(CC(=O)Nc2c(C)cc(C)cc2C)c(=O)c2cc3sccc3n12`, the inhibition was determined as 9.21%.

Turning to `OC1CCCN(c2c3c(nc4cc(-c5cccc(F)c5)nn24)CCCC3)C1` (stereo unspecified), the inhibition is active: 46.6%.

With `COc1ccc(-n2c(-c3ccc(Br)cc3)n[nH]c2=S)cc1`, the inhibition is active: 31%.

Take `Cc1ccc(C(=O)Nc2ccc3c(c2)N(C)C(=O)c2ccccc2S3)cc1F`: the inhibition turned out to be 6.68%.

As to `CCOC(=O)c1c(C)c(C(=O)NCCc2ccc(OC)cc2)c(C)n1CC`, the inhibition was -4.06%.

Take `COc1cccc(-c2cc(C(=O)NCCc3ccc(C)cc3)[nH]n2)c1`: the inhibition was -5.74%.

With `CC(=O)c1c(C)n(-c2cccc(C)c2)c2ccc(OC(=O)COc3ccccc3)cc12`, the inhibition came to 23.3%.

For `Cc1ccc(NS(=O)(=O)c2c(C(=O)N3CCCCCC3)c(C)n(C)c2C)cc1F`, the inhibition is 7.18%.

For `O=C(Nc1ccc(Br)cc1)c1ccc(Br)c(S(=O)(=O)NCc2ccccc2)c1`, the inhibition is 13.1%.

Regarding `CCOc1ccc(CNC(=O)Cn2nc(C)c3sc4ccccc4c3c2=O)cc1`, the inhibition was determined as 14.7%.

On to `COC(=O)c1[nH]c2cc(OC)ccc2c1NC(=O)CCN1CCN(c2ccccc2)CC1`, for which the inhibition is active: 63.2%.

In the case of `O=C(CSc1nc2c([nH]c3ccccc32)c(=O)n1-c1ccc(F)cc1)N1CCCCCC1`, the inhibition is -8.52%.

Take `COc1ccccc1CNC(=O)Nc1ccc2c(c1)N(C)C(=O)c1ccccc1S2`: the inhibition was 7.8%.

Consider `COc1ccc(Br)cc1CNC(=O)CCC(=O)N1CCSc2ccccc21`, for which the inhibition was -14.9%.

Consider `Clc1cccc(-c2noc3ncnc(NC4CCCCC4)c23)c1`, for which the inhibition is 7.87%.

Turning to `O=C(Cn1cc(SCc2cccc(C(F)(F)F)c2)c2ccccc21)N1CCCCCC1`, the inhibition was determined as 18.4%.

As to `Cc1[nH]c(=S)[nH]c(=O)c1Cc1ccc(OCC(C)C)cc1`, the inhibition is active: 30.7%.

As for `COc1cccc2cc(-c3nc(-c4cccs4)no3)c(=O)oc12`, the inhibition was -5.29%.

Turning to `COc1cc(NC(=O)CCc2c(C)nc3c(c(C)nn3-c3ccccc3)c2C)cc(OC)c1OC`, the inhibition was determined as 3.87%.

`CN1C(=O)C2CCCCN2c2ccc(C(=O)NCc3ccccc3Br)cc21` (stereo unspecified): the inhibition turned out to be 3.98%.
